Entries with a single value are a further part of the results.
Target: CynD R67C (Bacillus pumilus)
Assay: SEC; Superdex 200 10/300 GL, 0.1 M MOPS pH 7.7, 0.5 ml/min; His-tag purified protein; column calibrated with a marker kit, and with wild-type B. pumilus CynD (18-mer) and P. stutzeri CynD (14-mer)

stoichiometry N (14-mer elution peak): 14 subunits
stoichiometry N (dimer elution peak): 2 subunits
stoichiometry N (hexamer elution peak): 6 subunits
Substance: CynD R67C (enzyme)

From publication PMC4700190
